According to patent US20140086829A1 (BIOREC S A, published 2014):

Target: T1, human VEGF-A (Peprotech), isoform not stated (human, UniProt P15692-4 27-191, limits assumed)
T1 sequence (looked up): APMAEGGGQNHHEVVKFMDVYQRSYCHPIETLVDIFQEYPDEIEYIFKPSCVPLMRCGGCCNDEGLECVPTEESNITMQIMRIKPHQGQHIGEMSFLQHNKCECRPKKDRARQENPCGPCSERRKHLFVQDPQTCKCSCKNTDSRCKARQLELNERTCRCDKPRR
Assay: cell-based or functional assay

B1: scFv2-Fc L3H6 (Fc fusion)
chain: QVQLVQSGAEVKKPGESLKISCKGSGYSFTSYWIGWVRQMPGKGLEWMGIIYPGDSDTRYSPSFQGQVTISADKSISTAYLQWSSLKASDTAMYYCARQGTHNRKIWGQGTMVTVSSAPQAKSSGSGSESKVDQAVVTQEPSLTVSPGGTVTLTCASSTGAVTSGNYPNWFQQRPGQPPRALIYSTSNKHSWTPARFSGSLLGGKAALTLSGAQPEDEAEYYCRLSYDLARPVFGGGTKLTVLGSRGGGGSGGGGSA[omitted - human IgG1 Fc with E283K (EU numbers)]
  hemoglobin content of subcutaneous Matrigel pellets with 200 ng human VEGF and 100 µg of the molecule, C57Bl/6 mice: 3 fold against scFv2-Fc 2H1 8.2

B2: scFv2-Fc L3H5 (Fc fusion)
chain: B1 chain with Q99L, G100V, T101H, H102R, N103Y, K105A
  hemoglobin content of subcutaneous Matrigel pellets with 200 ng human VEGF and 100 µg of the molecule, C57Bl/6 mice: 3 fold against scFv2-Fc 2H1 8.2

B3: scFv2-Fc L3H7 (Fc fusion)
chain: B1 chain with Q99P, G100Y, T101A, H102T, N103D, R104T, K105R
  hemoglobin content of subcutaneous Matrigel pellets with 200 ng human VEGF and 100 µg of the molecule, C57Bl/6 mice: 3 fold against scFv2-Fc 2H1 8.2

Positions count from the first letter of the chain named.
